# Literature values in patent US5411733A (priority 1992, dated 1995).
# Tested on: CMV
# Details: cited from earlier work
smiles,measurement,value
C=CC[C@@H]1/C=C(\C)C[C@H](C)C[C@H](OC)[C@H]2O[C@@](O)(C(=O)C(=O)N3CCCC[C@H]3C(=O)O[C@H](/C(C)=C/[C@@H]3CC[C@@H](O)[C@H](OC)C3)[C@H](C)[C@@H](O)CC1=O)[C@H](C)C[C@@H]2OC [FK 506],influence on CMV growth,no or slight inhibitory influence on CMV growth
